Holding throughout (test): co-IP; HEK293T cell lysates doubly transfected with SALM4 (full-length, domains or deletion variants) + SALM2/3/5; immunoprecipitated and immunoblotted with the indicated antibodies (Figs 4d-f and 5c-e)
The target of experiment [1] is T1, SALM2, EGFP- or Myc-tagged full-length (Fig. 4d) (UniProt Q2WF71).
T1 sequence: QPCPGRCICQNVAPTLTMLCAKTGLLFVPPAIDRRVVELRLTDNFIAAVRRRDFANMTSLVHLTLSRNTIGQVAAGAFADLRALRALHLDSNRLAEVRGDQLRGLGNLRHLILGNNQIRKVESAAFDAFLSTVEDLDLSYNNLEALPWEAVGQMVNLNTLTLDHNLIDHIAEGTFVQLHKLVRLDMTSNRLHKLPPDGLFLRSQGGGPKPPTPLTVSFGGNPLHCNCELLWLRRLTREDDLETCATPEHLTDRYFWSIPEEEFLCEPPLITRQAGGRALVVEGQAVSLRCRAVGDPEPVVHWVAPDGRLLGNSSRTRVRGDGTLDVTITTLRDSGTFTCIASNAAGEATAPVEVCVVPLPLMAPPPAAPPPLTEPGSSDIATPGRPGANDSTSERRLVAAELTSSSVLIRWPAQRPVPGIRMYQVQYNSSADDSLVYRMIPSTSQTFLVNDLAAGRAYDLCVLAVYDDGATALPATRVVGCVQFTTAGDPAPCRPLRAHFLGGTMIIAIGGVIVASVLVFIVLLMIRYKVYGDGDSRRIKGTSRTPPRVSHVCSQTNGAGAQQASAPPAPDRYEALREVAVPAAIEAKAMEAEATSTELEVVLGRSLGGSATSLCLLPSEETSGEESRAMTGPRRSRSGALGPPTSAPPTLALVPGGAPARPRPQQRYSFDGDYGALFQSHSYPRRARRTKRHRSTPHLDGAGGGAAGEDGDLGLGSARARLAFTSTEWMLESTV

Experiment [2] has as its target T2, SALM3, EGFP- or Myc-tagged full-length (Fig. 4e) (UniProt Q80XU8).
T2 sequence: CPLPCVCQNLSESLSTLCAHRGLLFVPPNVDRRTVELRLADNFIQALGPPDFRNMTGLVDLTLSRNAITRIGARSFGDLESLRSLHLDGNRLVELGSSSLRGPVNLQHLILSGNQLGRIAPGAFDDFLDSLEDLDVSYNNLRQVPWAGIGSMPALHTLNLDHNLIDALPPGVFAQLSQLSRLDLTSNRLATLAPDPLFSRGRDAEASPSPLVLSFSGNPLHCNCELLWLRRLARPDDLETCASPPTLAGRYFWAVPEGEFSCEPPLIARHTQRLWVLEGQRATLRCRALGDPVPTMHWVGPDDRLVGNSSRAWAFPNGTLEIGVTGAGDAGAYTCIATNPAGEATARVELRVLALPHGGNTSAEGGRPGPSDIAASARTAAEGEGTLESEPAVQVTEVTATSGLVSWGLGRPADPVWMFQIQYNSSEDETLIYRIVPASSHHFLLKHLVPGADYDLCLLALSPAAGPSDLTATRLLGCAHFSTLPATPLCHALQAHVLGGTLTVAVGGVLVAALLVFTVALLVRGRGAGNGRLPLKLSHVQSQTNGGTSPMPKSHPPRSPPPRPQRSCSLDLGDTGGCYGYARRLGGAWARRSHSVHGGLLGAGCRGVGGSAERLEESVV

Experiment [3] concerns the target T3, SALM5, EGFP- or Myc-tagged full-length (Fig. 4f) (UniProt Q8BXA0).
T3 sequence: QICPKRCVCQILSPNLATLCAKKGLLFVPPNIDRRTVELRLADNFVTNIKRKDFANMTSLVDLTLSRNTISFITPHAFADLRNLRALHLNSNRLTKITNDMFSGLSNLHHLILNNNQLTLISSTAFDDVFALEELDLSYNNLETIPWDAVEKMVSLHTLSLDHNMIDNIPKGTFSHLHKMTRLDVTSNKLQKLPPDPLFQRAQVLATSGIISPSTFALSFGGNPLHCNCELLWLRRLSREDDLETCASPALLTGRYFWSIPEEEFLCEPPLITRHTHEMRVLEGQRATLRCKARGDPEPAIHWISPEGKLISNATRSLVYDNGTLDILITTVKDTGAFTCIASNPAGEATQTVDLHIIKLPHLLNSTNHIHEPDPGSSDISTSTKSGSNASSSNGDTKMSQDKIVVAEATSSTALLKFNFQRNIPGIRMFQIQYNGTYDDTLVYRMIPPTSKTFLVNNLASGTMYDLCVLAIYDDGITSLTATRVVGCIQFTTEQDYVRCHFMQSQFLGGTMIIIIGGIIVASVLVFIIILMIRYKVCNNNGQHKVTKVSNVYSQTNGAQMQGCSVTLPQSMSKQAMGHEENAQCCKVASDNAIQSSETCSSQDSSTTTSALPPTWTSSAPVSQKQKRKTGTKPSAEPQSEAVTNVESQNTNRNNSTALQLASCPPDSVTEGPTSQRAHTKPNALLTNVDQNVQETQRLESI

The next experiment has as its target T4, Myc-SALM2 (Fig. 5c) (UniProt Q2WF71).
T4 sequence: T1 sequence

A further experiment addresses T5, SALM3-EGFP (Fig. 5d) (UniProt Q80XU8).
T5 sequence: T2 sequence

The target in the next experiment is T6, SALM5-EGFP (Fig. 5e) (UniProt Q8BXA0).
T6 sequence: T3 sequence

These are yes or no findings as the source states them, for the method shown. Binding seen in cells or lysates may run through a third protein. Some binding calls cover weakened binding; strength is not graded here. Sequences can lack the tags named with a protein.

The results in this text go back to article PMC4974644.

B1: SALM4, Myc-tagged full-length (protein, UniProt Q8BLY3 17-626)
chain: SSPPQPAISSPCPRRCRCQTQSMPLSVLCPGAGLLFVPPSLDRRAAELRLADNFIAAVRRRDLANMTGLLHLSLSRNTIRHVAAGAFADLRALRALHLDGNRLTSLGEGQLRGLVNLRHLILSNNQLAALAAGALDDCAETLEDLDLSYNNLEQLPWEALGRLGNVNTLGLDHNLLASVPAGAFSRLHKLARLDMTSNRLTTIPPDPLFSRLPLLARPRGSPASALVLAFGGNPLHCNCELVWLRRLAREDDLEACASPPALGGRYFWAVGEEEFVCEPPVVTHRSPPLAVPAGRPAALRCRAVGDPEPRVRWVSPQGRLLGNSSRARAFPNGTLELLVTEPEDGGTFTCIAANAAGEATAAVELTVGPPPPPQLANSTSCDPPRDGEPDALTPPSAASASAKVADTVAPTDRGVQVTEHGATAALVQWPDQRPVPGIRMYQIQYNSSADDILVYRMIPADSRSFLLTDLASGRTYDLCVLAVYEDSATGLTATRPVGCARFSTEPALRPCAAPHAPFLGGTMIIALGGVIVASVLVFIFVLLLRYKVHGGQPPGKAKATAPVSSVCSQTNGALGPVPSAPAPEPAAPRAHTVVQLDCEPWGPSHEPAGP
Consider B1, for which the binding entry in experiment [1], in experiment [2] and in experiment [3] was “binds” in each case.

B2: HA-SALM4-ΔLRR (aa 287–627) (domain or fragment, UniProt Q8BLY3 287-626)
chain: GEEEFVCEPPVVTHRSPPLAVPAGRPAALRCRAVGDPEPRVRWVSPQGRLLGNSSRARAFPNGTLELLVTEPEDGGTFTCIAANAAGEATAAVELTVGPPPPPQLANSTSCDPPRDGEPDALTPPSAASASAKVADTVAPTDRGVQVTEHGATAALVQWPDQRPVPGIRMYQIQYNSSADDILVYRMIPADSRSFLLTDLASGRTYDLCVLAVYEDSATGLTATRPVGCARFSTEPALRPCAAPHAPFLGGTMIIALGGVIVASVLVFIFVLLLRYKVHGGQPPGKAKATAPVSSVCSQTNGALGPVPSAPAPEPAAPRAHTVVQLDCEPWGPSHEPAGP
For the molecule B2, the binding entry is reported as “no binding” in the experiment with Myc-SALM2 (Fig. 5c), “binds” with SALM3-EGFP (Fig. 5d) and “no binding” with SALM5-EGFP (Fig. 5e).

B3: HA-SALM4-ΔFNIII (aa 28–400, 530–627) (domain or fragment, UniProt Q8BLY3)
chain: CPRRCRCQTQSMPLSVLCPGAGLLFVPPSLDRRAAELRLADNFIAAVRRRDLANMTGLLHLSLSRNTIRHVAAGAFADLRALRALHLDGNRLTSLGEGQLRGLVNLRHLILSNNQLAALAAGALDDCAETLEDLDLSYNNLEQLPWEALGRLGNVNTLGLDHNLLASVPAGAFSRLHKLARLDMTSNRLTTIPPDPLFSRLPLLARPRGSPASALVLAFGGNPLHCNCELVWLRRLAREDDLEACASPPALGGRYFWAVGEEEFVCEPPVVTHRSPPLAVPAGRPAALRCRAVGDPEPRVRWVSPQGRLLGNSSRARAFPNGTLELLVTEPEDGGTFTCIAANAAGEATAAVELTVGPPPPPQLANSTSCDPPPHAPFLGGTMIIALGGVIVASVLVFIFVLLLRYKVHGGQPPGKAKATAPVSSVCSQTNGALGPVPSAPAPEPAAPRAHTVVQLDCEPWGPSHEPAGP
Turning to B3, the binding result with Myc-SALM2 (Fig. 5c), with SALM3-EGFP (Fig. 5d) and with SALM5-EGFP (Fig. 5e) was “binds” in each case.

B4: HA/Myc-SALM4 ectodomain (SALM4 in the pDisplay vector tagged by both HA and Myc) (domain or fragment, UniProt Q8BLY3 17-539)
chain: SSPPQPAISSPCPRRCRCQTQSMPLSVLCPGAGLLFVPPSLDRRAAELRLADNFIAAVRRRDLANMTGLLHLSLSRNTIRHVAAGAFADLRALRALHLDGNRLTSLGEGQLRGLVNLRHLILSNNQLAALAAGALDDCAETLEDLDLSYNNLEQLPWEALGRLGNVNTLGLDHNLLASVPAGAFSRLHKLARLDMTSNRLTTIPPDPLFSRLPLLARPRGSPASALVLAFGGNPLHCNCELVWLRRLAREDDLEACASPPALGGRYFWAVGEEEFVCEPPVVTHRSPPLAVPAGRPAALRCRAVGDPEPRVRWVSPQGRLLGNSSRARAFPNGTLELLVTEPEDGGTFTCIAANAAGEATAAVELTVGPPPPPQLANSTSCDPPRDGEPDALTPPSAASASAKVADTVAPTDRGVQVTEHGATAALVQWPDQRPVPGIRMYQIQYNSSADDILVYRMIPADSRSFLLTDLASGRTYDLCVLAVYEDSATGLTATRPVGCARFSTEPALRPCAAPHAPFLGGTM
With B4, the binding entry in experiment [1] is recorded as “binds”; in experiment [2] it was “no binding”; in experiment [3], “binds”.

B5: EGFP-tagged cytoplasmic domain of SALM4 (aa 561–626) (domain or fragment, UniProt Q8BLY3 561-626)
chain: RYKVHGGQPPGKAKATAPVSSVCSQTNGALGPVPSAPAPEPAAPRAHTVVQLDCEPWGPSHEPAGP
For B5, the binding entry in experiment [1] and in experiment [2] was “no binding” each time.

B6: HA-SALM4-ΔC44aa (aa 28–583) (domain or fragment, UniProt Q8BLY3 28-583)
chain: CPRRCRCQTQSMPLSVLCPGAGLLFVPPSLDRRAAELRLADNFIAAVRRRDLANMTGLLHLSLSRNTIRHVAAGAFADLRALRALHLDGNRLTSLGEGQLRGLVNLRHLILSNNQLAALAAGALDDCAETLEDLDLSYNNLEQLPWEALGRLGNVNTLGLDHNLLASVPAGAFSRLHKLARLDMTSNRLTTIPPDPLFSRLPLLARPRGSPASALVLAFGGNPLHCNCELVWLRRLAREDDLEACASPPALGGRYFWAVGEEEFVCEPPVVTHRSPPLAVPAGRPAALRCRAVGDPEPRVRWVSPQGRLLGNSSRARAFPNGTLELLVTEPEDGGTFTCIAANAAGEATAAVELTVGPPPPPQLANSTSCDPPRDGEPDALTPPSAASASAKVADTVAPTDRGVQVTEHGATAALVQWPDQRPVPGIRMYQIQYNSSADDILVYRMIPADSRSFLLTDLASGRTYDLCVLAVYEDSATGLTATRPVGCARFSTEPALRPCAAPHAPFLGGTMIIALGGVIVASVLVFIFVLLLRYKVHGGQPPGKAKATAPVSSVC
As for B6, the binding entry in the experiment with Myc-SALM2 (Fig. 5c), in the experiment with SALM3-EGFP (Fig. 5d) and with SALM5-EGFP (Fig. 5e) was “binds” each time.
